Reference: PubChem BioAssay AID624170 (National Center for Advancing Translational Sciences (NCATS), 2012)
In all, about 410,000 compounds went through this assay and about 850 (0.21%) were called active. This list was built around the results that the source calls inconclusive (neither active nor inactive); the mix of calls is not that of the screen. The call rests on the fitted dose curve; in most records, active means well fitted inhibition curve with a large enough effect; inconclusive means small, poorly fitted or top-dose-only effect, or another doubt; inactive means no such curve, though single readings can be large or run the other way. Where the call is inconclusive, the potency comes from a doubtful curve fit.

What follows are molecules tested against Glutaminase kidney isoform, mitochondrial (Homo sapiens) (UniProt O94925) (assay: qHTS for Inhibitors of Glutaminase (GLS)). Details: GLS enzymatic activity, qHTS titration; series mostly up to 45.5 µM; activity change, negative = inhibition: at the top concentration.
In short: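 hKGA in 45 mM KH2PO4 pH 8.2, 0.02% Tween-20 with pin-transferred compounds; 1 mM L-glutamine (stock) plus glutamate oxidase/HRP/Amplex Red coupling added. Fluorescence read initially and after 30 min at RT.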
On the % scale 0 is the no-effect control and ±100 the full control effect; potency means the concentration at half of the fitted maximal effect; tags describe the fitted curve by direction and shape.

Chain of UniProt O94925 (O94925 whole entry, looked up, canonical isoform): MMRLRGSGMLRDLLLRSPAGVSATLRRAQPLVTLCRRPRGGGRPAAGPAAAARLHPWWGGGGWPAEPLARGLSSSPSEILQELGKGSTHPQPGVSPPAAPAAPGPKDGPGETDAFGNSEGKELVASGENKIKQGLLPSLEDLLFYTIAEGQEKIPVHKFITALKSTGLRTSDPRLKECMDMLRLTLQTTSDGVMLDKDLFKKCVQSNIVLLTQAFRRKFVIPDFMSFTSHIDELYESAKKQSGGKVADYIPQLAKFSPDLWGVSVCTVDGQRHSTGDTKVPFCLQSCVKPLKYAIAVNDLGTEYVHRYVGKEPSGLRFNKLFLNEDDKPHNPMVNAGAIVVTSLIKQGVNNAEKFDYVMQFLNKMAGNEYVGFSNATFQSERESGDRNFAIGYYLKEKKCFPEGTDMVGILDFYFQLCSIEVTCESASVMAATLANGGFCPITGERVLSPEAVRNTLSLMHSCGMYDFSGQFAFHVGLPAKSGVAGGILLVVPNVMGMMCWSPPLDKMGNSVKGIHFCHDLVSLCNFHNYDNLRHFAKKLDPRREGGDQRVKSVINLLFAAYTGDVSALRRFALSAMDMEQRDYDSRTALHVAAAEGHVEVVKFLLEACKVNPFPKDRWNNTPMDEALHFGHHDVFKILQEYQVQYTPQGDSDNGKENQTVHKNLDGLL

Potency, inconclusive:
COCCN(C(=O)c1cc2c(s1)CCC2)c1c(N)n(CC(C)C)c(=O)[nH]c1=O 17.8 µM [inhibitor, single point]
COc1ccccc1NC(=O)Nc1nn(C)c2cccc(N(C)C)c12 14.1 µM [inhibitor, single point]
C/C(CC(=O)Nc1ccc(N(C)C)cc1)=N\NC(=O)c1ccc(Cl)cc1Cl 11.2 µM [inhibitor, single point]
Nn1c(SCC(=O)NC(=O)NCc2ccco2)nnc1-c1ccc(OC(F)F)cc1 35.5 µM [inhibitor, single point]
O=C(Nc1ccc(Nc2ccccc2)cc1)c1ccc(Cl)cc1Cl 12.6 µM [inhibitor, partial curve, poor fit]
FC(F)Oc1ccc(NC(=S)NCCc2ccccn2)cc1 35.5 µM [inhibitor, single point]
O=C(O)CSc1nc2ccccc2nc1Cc1ccccc1F 31.6 µM [inhibitor, single point]
COc1cccc2oc3cc(C#Cc4ccccn4)ccc3c(=O)c12 35.5 µM [inhibitor, partial curve, poor fit]
Cc1ccc(CN2C(=O)N/C(=C/c3ccc(-c4ccc(C(=O)O)cc4)o3)C2=O)cc1 20 µM [inhibitor, single point]
COc1ccc(OC)c(CNC(=O)Cc2c(C(=O)O)[nH]c3ccc(Cl)cc23)c1 35.5 µM [inhibitor, single point]
CC1=NN(c2ccccc2)C(=O)C1=Cc1ccccc1 17.8 µM [inhibitor, partial curve]
Cc1cc(C(=O)OCC(N)=O)c(C)n1-c1ccccc1 35.5 µM [inhibitor, single point]
O=C(O)Cc1sc(Nc2ccc(Cl)cc2)nc1-c1cccs1 20 µM [inhibitor, single point]
O=C(CCn1c(=O)oc2cc(Cl)ccc21)Nc1ccc(O)cc1 11.2 µM [inhibitor, partial curve]
COc1cccc(N/N=C/c2cccc(Br)c2O)c1 22.4 µM [inhibitor, single point]
Cc1nn(-c2ccc(F)cc2)c(Cl)c1/C=C(/CCC(=O)O)c1nc2ccccc2s1 15.8 µM [inhibitor, single point]
Cc1cc(OCCCC(=O)NCCc2ccccn2)ccc1Cl 8.91 µM [inhibitor, partial curve]
O=C(N/N=C/c1ccc(-c2ccc(S(=O)(=O)Nc3ncccn3)cc2)o1)c1cc2ccccc2cc1O 31.6 µM [inhibitor, single point]
CCS(=O)(=O)c1ncc(Cl)c(C(=O)Nc2ccc(S(=O)(=O)N(C)c3ccccc3)cc2)n1 3.16 µM [inhibitor, single point]
Fc1ccc(-c2c[nH]c(=S)n2Cc2ccccc2)cc1 7.08 µM [inhibitor, partial curve]
CCCOc1ccc(OC(=O)Cc2ccc(OC)c(S(=O)(=O)N3CCOCC3)c2)cc1 14.1 µM [inhibitor, partial curve]
Cc1cccc(C(=O)/C=C2/c3ccccc3CC(C)(C)N2C)c1 35.5 µM [inhibitor, single point]
CC1CCC(C(C)C)C(=O)/C1=C/c1ccc(N)cc1 (configuration not stated) 22.4 µM [inhibitor, single point]
O=C1NC(=Nc2ccccc2Cl)S/C1=C\c1cc([N+](=O)[O-])ccc1O 35.5 µM [inhibitor, single point]
Cc1c(Br)c([N+](=O)[O-])nn1CCCC(=O)Nc1sc2c(c1C#N)CCC2 35.5 µM [inhibitor, single point]
O=C(NC(=S)Nc1ccc(S(=O)(=O)Nc2nccs2)cc1)c1cccnc1 35.5 µM [inhibitor, single point]
CCOCCCNC(=O)c1ccc(Cn2c(=S)[nH]c3c([nH]c4ccc(OC)cc43)c2=O)cc1 8.91 µM [inhibitor, partial curve, poor fit]
COc1c(O)cc2oc(-c3ccc(O)c(O)c3)cc(=O)c2c1O 8.91 µM [inhibitor, partial curve, poor fit]
CCOC(=O)C1=C(C)N=c2s/c(=C/c3cccc([N+](=O)[O-])c3O)c(=O)n2C1c1ccccc1 (configuration not stated) 35.5 µM [inhibitor, single point]
C#CCOCCOCCOCCNc1nc(N2CCN(C(=O)CCCCCCCCCCNC(=O)Cn3cc(CCCCCN)nn3)CC2)nc(N2CCN(C(=O)CCCCCCCCCCNC(=O)[C@H]([C@@H](C)CC)n3cc(CCCCCN)nn3)CC2)n1 20 µM [inhibitor, partial curve]
O=c1cc(CN2CCN(c3ccc(O)cc3)CC2)nc2scc(-c3ccccc3)n12 0.355 µM [inhibitor, full curve, poor fit]
CCCCNC(=O)N(O)C1N(/N=C/c2ccccc2OC)C(=S)SC1(C)C (configuration not stated) 6.31 µM [inhibitor, partial curve, poor fit]
CC(C)C(NC(=O)/C(=C/c1ccco1)NC(=O)c1ccc(Br)o1)C(=O)O (configuration not stated) 31.6 µM [inhibitor, single point]
CCN(CC)c1ccc(C=NNc2ccc([N+](=O)[O-])cn2)cc1 17.8 µM [inhibitor, partial curve, poor fit]
O=C(CN1CCN(c2ccc(O)cc2)CC1)N(C1CC1)C1CCS(=O)(=O)C1 (configuration not stated) 35.5 µM [inhibitor, single point]
CC1(C)CC1C(=O)Nc1ccc([N+](=O)[O-])cc1Br (configuration not stated) 5.01 µM [inhibitor, single point]
C=C(C)C(=O)Oc1ccc(N=Nc2ccc(C)cc2)ccc1=O 7.08 µM [inhibitor, partial curve, poor fit]
Cc1ccc(NC2(C#N)C(=O)Nc3ccccc32)cc1C (configuration not stated) 35.5 µM [inhibitor, partial curve, poor fit]
Cc1c(OCC(=O)N(C)C)ccc2c(-c3ccccc3)cc(=O)oc12 25.1 µM [inhibitor, single point]
COC(=O)c1cc2c(=O)c3ccccc3oc2nc1C 25.1 µM [inhibitor, single point]
COc1ccc(-n2c(=O)c3c4c(sc3n3c(=S)[nH]nc23)CCCC4)cc1 12.6 µM [inhibitor, single point]

Potency, active:
CSC1=NC=C(C#N)C2=NC(c3c(Cl)cccc3Cl)NN12 (configuration not stated) 11.2 µM
O=C(O)c1ccccc1-c1ccc(/C=c2\sc3nc4cc(Br)cnc4n3c2=O)o1 12.6 µM
Cc1ccc(S(=O)(=O)Nc2nc(CN3CCOCC3)nc3sc(C(=O)O)c(C)c23)cc1 17.8 µM

Activity change, negative = inhibition, inactive:
CC1(C(=O)NCc2ccccc2)CCC(=O)N1CCCn1ccnc1 (configuration not stated) -3.44%
N#Cc1c(N)sc2c1CCCCCC2 -4.09%
CC1(C)Cc2cccc(OCC(O)CN3CCN(c4ccccn4)CC3)c2O1 (configuration not stated) -7.82%
COc1ccc(-c2csc(NC(=O)CS(=O)(=O)c3ccc(F)cc3)n2)cc1OC -5.78%
CCCOc1ccc(N)cc1N 36.6%
Cc1ccc(NC(=O)Cc2ccc(-c3ccccc3)cc2)nc1 0.43%
O=C(CSc1nc2[nH]ncc2c(=O)[nH]1)Nc1cccc([N+](=O)[O-])c1 -7.57%
CCOc1ccc(OCCC(=O)OCC(=O)N2CCN(S(=O)(=O)c3ccc(Cl)cc3)CC2)cc1 12.2%
O=C1c2[nH]nc(-c3ccccc3O)c2C(c2cccc(OCc3ccccc3)c2)N1CCCO (configuration not stated) 1.06%
Brc1ccc(-c2csc3ncnc(-n4nnc5ccccc54)c23)cc1 9.49%
Cc1ccc(C2CC(=O)N(Cc3ccc(F)cc3)c3c2c(C)nn3-c2nc(C)cc(C)n2)cc1 (configuration not stated) -0.298%
CC1CCN(C(=O)Cn2cc(SCC(=O)NCc3ccc(F)cc3)c3ccccc32)CC1 5.33%
CC1CCCCN1CCNC(=O)c1ccc(Cn2c(SCc3ccccc3)nc3cccnc32)cc1 (configuration not stated) -2.12%
OC(c1ccc(F)cc1)c1nc(-c2cccc(F)c2)cs1 (configuration not stated) -3.55%
ON1C2CCCCC2N(O)C1c1ccccc1C(F)(F)F (configuration not stated) 8.2%
Cc1ccc(/C=C/C(=O)c2ccccc(=O)c2O)cc1C -18.5%
CCC(CC)NC(=O)CSc1ccc(S(=O)(=O)N2CCCCC2)cn1 0.706%
CC/C(=N/Nc1ccccc1)c1cnnc(-c2ccccc2)n1 5.61%
N#Cc1c(-c2ccc(Cl)cc2)cc(-c2ccccc2)nc1SCC(=O)O 0.186%
CN=Cc1sc2ccccc2c1O 13%
CC(C)Cn1cnc2c(SCc3ccccc3F)nc(N)nc21 -3.09%
CC(=O)N1CCN(c2cc(-c3ccccc3)nc3cc(-c4cccc(Cl)c4)nn23)CC1 -8.25%
CC(C)C(=O)Nc1nnc2n1CCS2 -10.1%
COc1ccc(NC(=O)Cn2c(=O)n(-c3cc(C)cc(C)c3)c(=O)c3oc4ccccc4c32)cc1OC 4.96%
Cc1ccc(N/C(=C\C(=O)c2ccccc2)C(=O)O)cc1 -15.2%
CCCCN(C)C(=O)c1coc(=O)c2ccccc12 11.5%
Cc1cc2c(cc1S(=O)(=O)CCC(=O)N1CCC(C)CC1)OCC(=O)N2 7.42%
CC1CCc2c(sc(NC(=O)Cc3ccccc3)c2C(=O)Nc2ccc(Cl)cc2)C1 (configuration not stated) -3.24%
